Measured values published in PubChem BioAssay AID588795 (National Center for Advancing Translational Sciences (NCATS), 2011).
“And” between values parts separate entries of the source, which are not always exact repeats. Equal entries are not always repeated. In all, about 390,000 compounds went through this assay and about 1,400 (0.36%) were called active. The inconclusive results got no clear call from the source; some entries with a clear call stand among them for comparison. The call rests on the fitted dose curve; in most records, active means well fitted inhibition curve with a large enough effect; inconclusive means small, poorly fitted or top-dose-only effect; inactive means no such curve, though single readings can be large or run the other way. Potencies beside an inconclusive call are fits to weak or partial responses and may not hold up.

Target: Flap endonuclease 1 (Homo sapiens) (UniProt P39748)
Chain of UniProt P39748 (P39748 whole entry, looked up): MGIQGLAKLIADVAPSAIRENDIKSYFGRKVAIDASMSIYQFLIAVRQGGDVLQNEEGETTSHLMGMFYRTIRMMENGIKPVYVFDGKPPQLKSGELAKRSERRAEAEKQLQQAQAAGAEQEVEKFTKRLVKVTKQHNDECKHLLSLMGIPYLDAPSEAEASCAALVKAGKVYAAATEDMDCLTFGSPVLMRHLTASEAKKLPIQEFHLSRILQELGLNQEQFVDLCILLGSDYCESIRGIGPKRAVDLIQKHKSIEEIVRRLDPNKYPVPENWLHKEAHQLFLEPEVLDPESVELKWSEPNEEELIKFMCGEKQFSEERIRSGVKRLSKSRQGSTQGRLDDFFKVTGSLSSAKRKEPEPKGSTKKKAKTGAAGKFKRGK
Assay: qHTS Assay for the Inhibitors of Human Flap endonuclease 1 (FEN1). Further: nearly all actives have a fitted effect of over 65% in size.
Details: Recombinant FEN1 flap cleavage, fluorescence, 15 min; series mostly up to 114 µM
Method in brief: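 Reaction started by adding substrate (50 nM final) to 10 nM enzyme after 15 min room-temperature compound preincubation. Reads at 0 and 15 min, with data normalized and fitted to a four-parameter Hill equation.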
Potency means the concentration at half of the fitted maximal effect; tags describe the fitted curve by direction and shape.

Structure (SMILES) | Potency
CCc1noc(C)c1C(=O)Nc1ccc(Cl)c(S(=O)(=O)N2CCCCC2)c1 | inconclusive: 89.1 µM [inhibitor, partial curve, poor fit]
COc1cc(C(=O)Nc2ccc3nc(SCc4ccccc4)sc3c2)cc(OC)c1OC | inactive
COc1cccc(C2C(C(=O)Nc3ccc(C)cc3C)=C(C)Nc3c(C(=O)Nc4cccc(C)c4)cnn32)c1OC (centres undefined) | inactive
O=c1cc(O)c2sc3nc(-c4cccnc4)cc(C(F)(F)F)c3c2[nH]1 | inconclusive: 79.4 µM [inhibitor, partial curve]
COc1ccc(-n2cnnc2SCC(=O)c2cc(C)n(Cc3cccs3)c2C)cc1 | inconclusive: 79.4 µM [inhibitor, partial curve, poor fit]
COc1ccc2[nH]c(C(=O)N/N=C/c3ccc(O)cc3O)cc2c1 | inconclusive: 22.4 µM [inhibitor, full curve]
Oc1c(CN2CCOCC2)cc(CN2CCOCC2)c(O)c1O | inconclusive: 50.1 µM [inhibitor, partial curve, poor fit]
CCOc1ccc(Br)cc1C1=NN(C(C)=O)C(c2ccc([N+](=O)[O-])s2)O1 (centres undefined) | inconclusive: 25.1 µM [inhibitor, partial curve, poor fit]
c1ccc2c3c([nH]c2c1)-c1[nH]ncc1CC3 | inconclusive: 89.1 µM [inhibitor, partial curve, poor fit]
O=C(CSc1nccn1Cc1ccc(F)cc1)Nc1ccc2c(c1)OCCO2 | inactive
Cc1ccc(-c2noc(-c3nnn(CC(=O)Nc4cc(C)cc(C)c4)c3N)n2)cc1 | inactive
COc1cc(NS(C)(=O)=O)ccc1Nc1c2ccccc2nc2ccccc12 | inconclusive: 39.8 µM [inhibitor, full curve] and inconclusive: 5.97 µM [inhibitor, partial curve, poor fit]
O=C1c2c(O)cc(O)cc2O[C@@]12c1c(cc(O)c3c1O[C@H](c1ccc(O)cc1)[C@@H](O)C3)O[C@@H]2c1ccc(O)cc1 | active: 50.1 µM
O=C(C[N+]12CCCc3cccc(c31)CCC2)c1ccc2ccccc2c1 | inconclusive: 56.2 µM [inhibitor, partial curve, poor fit]
O=C(c1cccc(-n2cccc2)c1)N1CCN(S(=O)(=O)c2ccccc2)CC1 | inconclusive: 50.1 µM [inhibitor, partial curve, poor fit]
O=C(O)c1ccc(S(=O)(=O)/N=C2\C=C(Nc3ccccc3F)C(=O)c3ccccc32)cc1 | active: 44.7 µM
CCn1c(=O)n(CC)c2cc(N3CCCC3)c(NC(=O)c3ccc(C)c([N+](=O)[O-])c3)cc21 | inconclusive: 89.1 µM [inhibitor, partial curve, poor fit]
C#CCOCCOCCOCCNc1nc(N2CCN(C(=O)CCCCCCCCCCNC(=O)[C@@H](CCSC)n3cc(CCO)nn3)CC2)nc(N2CCN(C(=O)CCCCCCCCCCNC(=O)[C@H]([C@@H](C)CC)n3cc(CCCCCN)nn3)CC2)n1 | active: 79.4 µM
CN(CC(=O)Nc1cccc(C(F)(F)F)c1)S(=O)(=O)c1ccc2[nH]c3c(c2c1)CCCC3 | inconclusive: 35.5 µM [inhibitor, partial curve, poor fit]
CC(=O)Nc1ccc(Sc2ncnc3scc(-c4ccccc4)c23)cc1 | inactive
Cc1cc(C)n2c(SCC(O)=C(C#N)c3nc4ccccc4[nH]3)nnc2n1 | inconclusive: 79.4 µM [inhibitor, partial curve, poor fit]
CC(C)N1C(=O)/C(=C\c2nc3ccccc3c(=O)[nH]2)c2ccccc21 | inconclusive: 39.8 µM [inhibitor, partial curve]

Structure (SMILES) | Potency
CCOC(=O)c1sc2nc(C)nc(NCc3ccccc3)c2c1C | inconclusive: 70.8 µM [inhibitor, partial curve, poor fit]
O=S(=O)(Nc1cccc(-c2ccc(N3CCCCCC3)nn2)c1)c1ccc(C(F)(F)F)cc1 | inconclusive: 50.1 µM [inhibitor, partial curve, poor fit]
CC1CCN(C(=O)COC(=O)c2ccc([N+](=O)[O-])o2)CC1 | inconclusive: 20 µM [inhibitor, full curve]
O=c1c2ccccc2nc2c3ccccc3c(NCc3ccccn3)nn12 | inconclusive: 70.8 µM [inhibitor, partial curve]
COc1cccc(Nc2nc3ccc(C)cc3nc2-n2nc(C)cc2C)c1 | inactive
O=C(O)c1cc(NS(=O)(=O)c2ccc(N3CCOCC3)c([N+](=O)[O-])c2)cc(C(=O)O)c1 | inactive
Oc1ccc(N=Cc2ccc(OCc3ccccc3)cc2)cc1 | inconclusive: 1.41 µM [inhibitor, full curve]
C[C@H](NC(=O)c1nc[nH]c1C(=O)N[C@@H](Cc1ccccc1)C(=O)OCc1ccccc1)C(=O)OC(C)(C)C | inconclusive: 70.8 µM [inhibitor, partial curve, poor fit]
O=C(Cn1nc(-c2ccc(Cl)cc2)ccc1=O)N1CCN(c2ccccc2)CC1 | inconclusive: 89.1 µM [inhibitor, single point]
COc1ccc(-n2cccc2/C=C2\C(=N)N3N=C(c4ccco4)SC3=NC2=O)cc1 | inconclusive: 44.7 µM [inhibitor, partial curve, poor fit]
C(=Nc1ccc(/C=C/c2ccnc3ccccc23)cc1)c1ccc2c(c1)OCO2 | inactive
COc1cccc(N2CCN(S(=O)(=O)c3ccc(-c4ccno4)cc3OC)CC2)c1 | inactive
CC(/C=C/C1(O)C(C)CC(O)CC1(C)C)OC1OC(CO)C(O)C(O)C1O (centres undefined) | inconclusive: 22.4 µM [inhibitor, partial curve, poor fit]
Cc1cc(=O)oc2cc(OCC(=O)c3ccccc3)ccc12 | inactive
O=C(O)c1cc(NN=C2c3ccccc3-c3ccccc32)ccc1Cl | inconclusive: 89.1 µM [inhibitor, single point]
O=[N+]([O-])c1ccc(O)c(-c2nn[nH]n2)c1 | inactive
COc1ccc(-c2nc(C#N)c(NCCN(C)C)o2)cc1 | inconclusive: 56.2 µM [inhibitor, partial curve, poor fit]
CCN(CC)c1ccc(NC(=O)CSc2nnc3nc(C)cc(C)n23)cc1 | inactive
COc1cccc(C(=O)Nc2ccccc2-c2nnc(-c3cccc(OC)c3)o2)c1 | inactive
CN(C)c1ccc(N=Nc2ccc(C(=O)O)cc2)cc1 | inconclusive: 56.2 µM [inhibitor, partial curve]
OCC1O[C@H](O)C(Cl)C(O)C1O (some centres undefined) | inconclusive: 8.44 µM [inhibitor, partial curve, poor fit]
CCCN1CCc2nc(N3CCN(c4ncccn4)CC3)ncc2C1 | inactive

Structure (SMILES) | Potency
CCCCCCCCCCCNC(=O)c1ccoc1C | inactive
CCOC(=O)CN1C(=O)S/C(=C\c2ccc(-c3ccc(C(=O)O)c(Cl)c3)o2)C1=O | inconclusive: 79.4 µM [inhibitor, partial curve]
COc1ccc(S(=O)(=O)Nc2cc3c(cc2NCc2ccccc2)n(C)c(=O)n3C)cc1 | inactive
CCOc1ccc2nc(SCC(=O)Nc3ccc4[nH]c(=O)[nH]c4c3)[nH]c2c1 | inconclusive: 39.8 µM [inhibitor, partial curve, poor fit]
Cc1cc(C)c(OCC(=O)N(Cc2cccc(F)c2)Cc2ccco2)c(C)c1 | inconclusive: 79.4 µM [inhibitor, single point]
CCc1nn(CC(=O)N2CCN(c3cccc(C(F)(F)F)c3)CC2)c(=O)c2cccn12 | inconclusive: 50.1 µM [inhibitor, partial curve, poor fit]
CC(C)(C)N1C(=O)c2ccc(C(=O)O)cc2C1=O | inactive
CCN(CC)c1ccc(/C=N/NC(=O)c2ccc3nc[nH]c3c2)c(O)c1 | inconclusive: 79.4 µM [inhibitor, partial curve, poor fit]
Cc1ccc(NC(=O)Nc2cnc3ccccc3c2)cc1 | inactive
N=C1S/C(=C\c2ccc(-c3ccccc3C(=O)O)o2)C(=O)N1c1ccc2c(c1)OCO2 | inconclusive: 44.7 µM [inhibitor, partial curve]
Cc1ccc(C)c(N2CCN(CCCNC(=O)Nc3ccc(Cl)cc3)CC2)c1 | inactive
COc1ccccc1N1CCN(CC(O)COc2ccc(C)cc2C(C)(C)C)CC1 (centres undefined) | inconclusive: 35.5 µM [inhibitor, partial curve, poor fit]
CCOC(=O)C1CCN(C(=O)C2CCC(=O)N(CC3CCCCC3)C2)CC1 (centres undefined) | inactive
CC(C)(C)[C@]1(O)CCN2C[C@H]3c4ccccc4CCc4cccc(c43)[C@@H]2C1 | inconclusive: 4.74 µM [inhibitor, single point]
COc1cc2nc(NC3CCN(C)CC3)nc(N3CCCN(C)CC3)c2cc1OC | inconclusive: 44.7 µM [inhibitor, partial curve]
COc1cc(CN2CCCC(N3CCN(c4ccccc4C)CC3)C2)ccc1O (centres undefined) | inconclusive: 28.2 µM [inhibitor, single point]
Cc1nc2ccccc2c2nc3ccccc3n12 | active: 22.4 µM
CC(C)(C)c1onc(OCP(=O)(O)O)c1CC(N)C(=O)O (centres undefined) | inconclusive: 8.44 µM [inhibitor, single point]
Cc1cc(NC(=O)CCNS(=O)(=O)c2ccc3c(c2)oc(=O)n3C)ccc1Br | inconclusive: 89.1 µM [inhibitor, partial curve, poor fit]
CCN(C(=O)Cn1nnc2sc(-c3ccccc3)cc2c1=O)c1cccc(C)c1 | inconclusive: 79.4 µM [inhibitor, partial curve, poor fit]
